# From patent US20250325717A1, “ANTI-NUCLEOPHOSMIN 1 ANTIBODY AND ANTIBODY CONJUGATE COMBINATION THERAPIES” (The Children's Medical Center Corporation, priority 2022, published 2025)
# Read-outs that look alike come from different tables or passages of the source.
# B1: Ab2.2 (antibody)
# heavy: [sequence of about 100 residues not given]WRNNAFDYWGQGTLVTVSS[sequence of human IgG1 constant region not given]
# light: SSELTQDPAVSVALGQTVRITCQGDSLRSYYASWYQQKPGQAPVLVIYGKNNRPSGIPDRFSGSSSGNTASLTITGAQAEDEADYYCNSSPRLKHRVVFGGGTKLTVLGQPKAAPSVTLFPPSSEELQANKATLVCLISDFYPGAVTVAWKADSSPVKAGVETTTPSKQSNNKYAASSYLSLTPEQWKSHRSYSCQVTHEGSTVEKTVAPTECS
# How the values were obtained:
# [1] = In vivo toxicity in wild-type mice; design: species or system C57BL/6J mice; settings: 2.5, 5 or 10 mg/kg IP, one dose per week, four doses; D1-D27
# Protocol: To assess the toxicity of Ab2.2 in vivo, wild-type (WT; C57BL/6J) mice received weekly treatment of Ab2.2. There were 5 mice per group. The target group received Ab2.2 administered by IP injection at a dose of 2.5 mg/kg, 5 mg/kg, or 10 mg/kg. The control group was administered 5 mg/kg of IgG (FIG. 20A). Four doses total were delivered, one dose per week. Weekly bleeds were performed for sample collection on days (D) 1, 7, 14, 20 and 27 of treatment. On D1, D7, D14, D20 and D27 mice were weighed, and samples were tested for white blood cells (WBC), platelets (PLT) and hemoglobin (HGB).
# NPM1 = target: T1, NPM1 (Homo sapiens, UniProt P06748); test: Western blot validation on WCE and crude membrane lysate; assay type: binding; settings: WCE and crude membrane (Mem) lysate
# T1 construct: endogenous in cells
# T1 sequence (P06748 whole entry, species assumed): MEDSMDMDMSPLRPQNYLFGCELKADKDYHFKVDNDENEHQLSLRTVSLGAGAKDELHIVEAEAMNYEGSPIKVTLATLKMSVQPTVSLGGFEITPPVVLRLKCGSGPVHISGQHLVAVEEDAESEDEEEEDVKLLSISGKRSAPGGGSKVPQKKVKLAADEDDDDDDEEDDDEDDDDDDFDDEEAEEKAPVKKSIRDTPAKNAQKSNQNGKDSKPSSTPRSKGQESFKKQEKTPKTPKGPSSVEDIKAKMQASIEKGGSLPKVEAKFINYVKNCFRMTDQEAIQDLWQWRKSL
# Protocol: The Ab2.2 antibody was further validated using western blot and compared to commercially available antibodies. The commercially available antibody was supplied from Santa Cruz (SC FC8791). Two sources of lysate were evaluated, WCE and crude membrane (Mem). […] Therefore, commercially available and Ab2.2 show near-identical banding pattern to NPM1 (FIG. 15B).
# MLL-AF9/Flt3-ITD AML [2] = test: Efficacy model 3: immunocompromised (NSG) AML mouse model; assay type: in vivo; settings: NSG mice; 5 mg/kg weekly, four doses
# Protocol: The immune mediated killing ability of Ab2.2 was assessed using efficacy model 3. In efficacy model 3, NSG mice receiving transplantation of primary murine AML cells were given weekly Ab2.2 treatments and assessed for overall survival (FIG. 24A). The transplanted primary murine cells were MLL-AF9/Flt3-ITD AML. The mouse model used was an immunocompromised AML mouse model (NSG). The control group received 5 mg/kg dose (IgG) and the target group received 5 mg/kg dose (Ab2.2). A total of four doses of Ab2.2 were administered.
# [3] = test system: PDX (MLL-R) cells (human AML-PDX); test: Survival of SCID CB17 mice engrafted with human AML-PDX; assay type: in vivo; settings: 10 mg/kg weekly, 4 doses
# Protocol: The ability of Ab2.2 to extend lifespan in mouse models xenografted with human AML-PDX was assessed. SCID CB17 mice received transplantation of PDX (MLL-R) cells (human AML-PDX). Next, engrafted mice received weekly treatment of Ab2.2 (target group) or IgG (control group). The target group received 10 mg/kg dose of Ab2.2. Mice received a total of 4 doses. Mice were assessed for overall survival, and molecular phenotyping (FIG. 31A).
# Antibody binding was assessed using flow cytometry (FIG. 31B). […] (FIG. 31C). Therefore, lifespan extension is observed in mice engrafted with human AML-PDX cell line and with natural killer (NK) cells and complement that are treated with Ab2.2.
# [4] = test system: NPM1 on the cell surface of cancer cells (OCI-AML3 cells); test: Live cell and fixed/permeabilized cell microscopy of OCI-AML3 cells; assay type: cell-based, human
# Protocol: The ability of Ab2.2 to bind to NPM1 on the cell surface of cancer cells (OCI-AML3 cells) was tested using both live cell microscopy and microscopy of fixed and permeabilized cells. Ab2.2 was compared to commercially available NPM1 antibodies. The commercially available NPM1 antibody used was Santa Cruz (SC) Anti-NPM1-AF647. […] Therefore, Ab2.2 detects more cytoplasmic NPM1 in mutant OCI-AML3 cells compared to commercially available NPM1antibodies (FIG. 14).
# MLL-AF9/Flt3-ITD AML [5] = test: Efficacy model 2: LSC targeting in secondary recipients; assay type: in vivo, mice
# Protocol: Efficacy model 2 was also used to assess the LSC targeting of Ab2.2 in secondary recipients (FIG. 23A). The transplanted primary murine cells were MLL-AF9/Flt3-ITD AML and a syngeneic AML mouse model was used. The control group received 5 mg/kg dose (IgG) and the target group received 5 mg/kg dose (Ab2.2). One dose of Ab2.2 was administered before secondary recipients received transplantation. Secondary recipients in the control group received transplanted cells from IgG treated mouse. The target group received transplanted cells from Ab2.2 treated mouse. The same number of cells were transplanted, and a survival assay, flow cytometry, examination of engraftment and LSC functional measurement were performed. […] WBC count was decreased in Ab2.2 treated mice and PLT was increased (FIG. 23F). […] The spleens of Ab2.2 treated secondary recipients weighed less than the IgG treated mice (FIG. 23H). […] The bone marrow (BM) and peripheral blood (PB) were assessed for percentage (%) of AML. In both the BM and PB there was a reduction in AML % in Ab2.2 treated groups compared to IgG controls (FIG. 23I).
# AML bone marrow blasts = test: Flow cytometry of AML patient bone marrow samples; assay type: cell-based, human
# From the text: To determine whether Ab2.2 targets NPM1 in cancer cells in vitro patient samples collected from The Dana-Farber Cancer Institute (DFCI) and the United Kingdom (UK) were used. Cells were isolated from the bone marrow of 12 acute myeloid leukemia (AML) patients from DFCI (FIG. 16) and 15 AML patients from UK (FIG. 18) and analyzed using flow cytometry (FIGS. 17A-17B and FIGS. 19A-19C). […] Furthermore, NPM1c blasts are CD34-low, allowing examination of LSC population, which are highly bound by Ab2.2. Therefore, Ab2.2 binds best to LSCs in NPM1c patient marrow (FIGS. 19D-19E). The results from DFCI indicate that Ab2.2 strongly stains the blasts, agnostic to mutational status, disease state, or prior treatment. […] Also, in NPM1c patients who's LSCs are CD34-, Ab2.2 strongly stains and therefore Ab2.2 will target leukemia initiating cells.
molecule,measurement,setting,value
B1,"toxicity in mice (weight, WBC, PLT, HGB)",[1],did not result in observable toxicity
same,western blot band,NPM1,around 38 kB
same,mean survival,MLL-AF9/Flt3-ITD AML [2],about 30 days
same,survival benefit without an intact immune system,MLL-AF9/Flt3-ITD AML [2],does not provide survival benefit
same,survival after transplantation,[3],over 60 days
same,survival compared with IgG treated mice,[3]; p=0.0023,significantly longer
same,"cell surface staining, live cell microscopy",[4],performs similarly to commercially available NPM1 antibodies
same,"cell surface staining, live cell microscopy",[4]; listed as maAb2,stain surface puncta
same,mean survival of secondary recipients,MLL-AF9/Flt3-ITD AML [5]; cells transplanted from mouse given one 5 mg/kg dose,about 50 days
same,AML % in bone marrow (BM),MLL-AF9/Flt3-ITD AML [5]; compared to IgG controls,reduction
same,AML % in peripheral blood (PB),MLL-AF9/Flt3-ITD AML [5]; compared to IgG controls,reduction
same,staining of the stem cell compartment,"MLL-AF9/Flt3-ITD AML [5]; flow cytometry, MLL-AF9 model",fractionally better than the bulk tumor
same,PLT,MLL-AF9/Flt3-ITD AML [5]; secondary recipients,increased
same,WBC count,MLL-AF9/Flt3-ITD AML [5]; secondary recipients,decreased
same,WBC over time,"MLL-AF9/Flt3-ITD AML [5]; secondary recipients, compared to IgG treated",remain lower
same,spleen weight,"MLL-AF9/Flt3-ITD AML [5]; secondary recipients, vs IgG treated mice",weighed less
same,binding to AML bone marrow blasts,"AML bone marrow blasts; DFCI patient samples (Patient 5), flow cytometry",strongly binds
same,binding to LSC population,"AML bone marrow blasts; NPM1c patient marrow, CD34-low blasts",highly bound
same,binding to NPM1c AML bone marrow,"AML bone marrow blasts; UK patient samples, flow cytometry",strongly binds
